About 740 (0.15%) of roughly 480,000 compounds were called active. Inconclusive means that the source gave no clear call. Such entries were picked first, then a sample of the others. Cut-off read from the data, not from the text of the source: active = activity change below about -30%; inconclusive = mostly about -25% to -30%; inactive = weaker than that.
These molecules were tested against L-lactate dehydrogenase A chain (Homo sapiens) (UniProt P00338) (assay: qHTS assay for inhibitors of human lactate dehydrogenase). Details: purified LDHA, NADH/diaphorase-resazurin fluorescence; stronger effect = lower value.
Outline: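 Enzyme activity of human lactate dehydrogenase 5 (2 nM; 0.06 mM NADH, 0.2 mM pyruvate, 5 min, RT) is measured via a resazurin/diaphorase fluorescence readout of residual NADH.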
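Note: values are at about 110 or 230 µM; plate controls were DMSO wells for no effect and wells without enzyme for full effect.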

Activity change, inactive:
COCC(C)NS(=O)(=O)c1ccc(C)cc1C (centres undefined) 2.61%
Fc1ccc2c(c1)c1n[nH]c(=S)nc1n2CCc1ccccc1 1.65%
CC(=O)c1c(C)[nH]c(C(=O)Nc2nc(-c3ccc(-c4ccccc4)cc3)cs2)c1C -8.25%
NC(=O)c1c(NC(=O)c2ccc([N+](=O)[O-])o2)sc2c1CCCC2 -8.5%
CC(=O)c1ccc(NC(=S)Nc2cccc(Cl)c2C)cc1 0.108%
Cc1ccc2[nH]c(CSc3nnc(NC(=O)COc4ccccc4Cl)s3)cc(=O)c2c1 -3.64%
Cc1ccc(/C=C/C(=O)c2ccc(C#N)cc2)s1 4.51%
COc1cc([C@H]2[C@@H]3CCCC[C@]3(O)CCN2CC(=O)Nc2ccc(C)cc2C)ccc1O 0.75%
O=C(Nc1cccc2cccnc12)OCc1ccccc1 11.2%
CCn1c(SCC(=O)c2ccc(Cl)s2)nnc1-c1ccc(OC)cc1 4.3%
O=C(c1ccc(N2CCN(C(=O)c3ccc(F)cc3F)CC2)cc1)c1cccc(F)c1 -2.97%
CC(C)(C)c1ccc(NC(=O)N2CCN(c3ccc([N+](=O)[O-])cn3)CC2)cc1 -5.82%
COc1ccc(S(=O)(=O)N(C)C[C@H]2Oc3ccc(NS(=O)(=O)c4ccccc4)cc3C(=O)N([C@H](C)CO)C[C@@H]2C)cc1 -6.46%
CC(C)CCNC(=O)C1CCN(S(=O)(=O)c2ccc(-n3cnnn3)cc2)CC1 -8%
Cc1ccc(CNC(=O)c2ccccc2NC(=O)CSc2nc(C)cs2)cc1 0.0451%
O=C(CCl)c1ccc(Cc2ncc(C(F)(F)F)cc2Cl)s1 -1.43%
Cc1sc(-n2cccc2)c(C(C)NC(=O)Nc2cccc(C(F)(F)F)c2)c1C (centres undefined) 0.874%
COc1ccc(C(=O)C2C(=O)C(=O)N(Cc3ccco3)C2c2cccs2)cc1 (centres undefined) -3.61%
COc1nnc(-c2ccc(N3CCCCC3)c(N)c2)c2ccccc12 1.19%
O=C(c1cc(COc2ccc(F)cc2Cl)on1)N1CCN(C2CCCCC2)C(=O)C1 -6.91%
COc1ccc(C(=O)c2sc(Nc3cccc(Cl)c3)nc2N)cc1 13.3%
Cc1ccccc1NC(=O)CN1CCC(n2nnc3ccccc32)CC1 -3.66%
C=CCNCCOc1cccc(Br)c1 -0.728%
CC(=O)Oc1ccc(C(=O)Nc2ccc3c(c2)C(=O)N(CCC(=O)O)C3=O)cc1 -6.4%

Activity change, inconclusive:
CCOC(=O)N1CCN(c2ncnc3c2[nH]c2ccc(F)cc23)CC1 -25.3%
CCOC(=O)N1CCC(NCCNC(=O)c2ccc(Cl)cc2)CC1 -28.9%
O=C(CCc1ccco1)N(Cc1cccs1)C1CC1 -28.9%
COc1ccc2nc(C)cc(SCC(NC(C)=O)C(=O)O)c2c1 (centres undefined) -25%
Cc1c(-c2ccccc2)nc2ccccc2c1C(=O)O -26.8%
COc1ccc(C2NC(=O)NC3=C2C(=O)N(Cc2ccccc2)C3)cc1OC (centres undefined) -27.2%
Cc1c(C)n2c3c(=O)[nH]c(=O)n(C)c3nc2n1CCCN(C)C -25.2%
COC(=O)c1cccc(-n2sc3ccccc3c2=O)c1 -27.8%
COc1ccc2oc(=O)c(-c3csc(Nc4ccccc4)n3)cc2c1 -26.3%
Cc1[nH]c(C)c(S(=O)(=O)NCCC(=O)NCc2ccccc2Cl)c1C(=O)N1CCCCC1 -29.2%
O=C(/C=C/c1ccccc1)NC(NC(=S)Nc1cccc(O)c1)C(Cl)(Cl)Cl (centres undefined) -27%
N#Cc1cccc(C(=O)N2CCN(c3oc(C4CC4)nc3C#N)CC2)c1 -27.4%
COc1cc(CN2CCN(C(=O)CC(C)C)CC2)cc(OC)c1OC -29.7%
CCCCCCCNC(=O)CCC(=O)NCCC(C)C -27.6%
O=S(=O)(c1ccc2ccccc2c1)N1CCN(C2CCN(Cc3ccccc3)CC2)CC1 -27.2%
N#Cc1ccc(S(=O)(=O)N2CCC(C(=O)Nc3nc4c(s3)CCC4)CC2)cc1 -26.9%
CCCn1c(C)cc(C(=O)Cn2c(Cl)nc3c2c(=O)n(C)c(=O)n3C)c1C -28%
O=C(N/N=C/C=C/c1ccccc1[N+](=O)[O-])NC1CCCCC1 -27.6%
CC(C)(C)C(=O)Nc1ccc2oc(-c3ccc(F)cc3)nc2c1 -27.8%
C[C@H](O)[C@@H]1C(=O)N2CCc3c([nH]c4ccccc34)[C@@H]2C[C@@H]1N(C)S(=O)(=O)c1ccccc1 -27.7%
CCc1ccc(CN(C)CC(=O)N(C)c2c(N)n(Cc3ccccc3)c(=O)[nH]c2=O)cc1 -25.6%
O=C(CN1CCN(c2ccccn2)CC1)Nc1ccc(F)cc1 -28.8%
Cc1nc2nc3ccn(CCCN(C)C)c(=O)c3c(-c3ccccc3)n2n1 -27.3%
O=C(COc1ncnc2c(Cl)cc(Cl)cc12)N1CCCCC1 -30%
O=C(CSc1nc2c([nH]c3ccccc32)c(=O)n1-c1cccc(Cl)c1)N1CCOCC1 -26.1%
Clc1ccc(OCCn2ccnc2)c(Cl)c1 -25.7%
NS(=O)(=O)c1ccc(N/N=C/c2cccc(Cl)c2)c([N+](=O)[O-])c1 -27.5%
COc1ccccc1CNC(=O)C(C)Sc1nc2cc(Cl)ccc2n1C (centres undefined) -25.5%
CC(C)C(=O)/C(C#N)=C\c1ccc(OCc2cccc(F)c2)cc1 -26.1%
CC(C)NC(=O)NC(=O)COC(=O)c1ccc2ccccc2n1 -28.4%
CC1NC(=S)N(Cc2ccccc2)C1=O (centres undefined) -25.9%
COC(=O)C(C)N1C(=O)S/C(=C/c2cccn2C)C1=O (centres undefined) -26.3%
O=C(CSc1nc(NS(=O)(=O)c2ccccc2)cc(=O)[nH]1)Nc1ccc(F)cc1 -29.4%
Cc1cc(N2CCN(c3ccccc3)CC2)nc(NCc2ccccc2)n1 -26.3%
COc1ccc(Cl)cc1C(=O)NCCN1CCCCC1 -25.5%
CCC1CCCCN1C(=O)/C=C/c1ccc(Br)cc1 (centres undefined) -28.8%
Cc1sc2ncnc(NCC(c3ccco3)N(C)C)c2c1C (centres undefined) -36.6%
CCOC(=O)N1CCN(Cc2ccccn2)CC1 -25.4%
O=C(NCc1cccs1)c1ccc(CSc2nc3cccnc3n2Cc2ccccc2F)cc1 -25.1%
CCN1CCN(CC#CCOc2ccccc2OC)CC1 -27.6%
COc1ccc(Br)cc1CN1CCC(N2CCCC2)CC1 -28.5%
Cc1noc(NS(=O)(=O)c2ccc(N/C=C\C(=O)c3ccc(F)cc3)cc2)c1C -26%
O=C(Nc1ccccc1)N(Cc1cccs1)c1ccccn1 -26.9%
CCC(Oc1ccccc1F)C(=O)NCc1csc(-c2ccccc2)n1 (centres undefined) -28.4%
Cc1nnc(NC(=O)NCC(C)(C)N2CCN(C)CC2)s1 -27.3%
COc1ccc2nc(/C(C#N)=C\c3ccco3)[nH]c2c1 -25.3%
COc1cc(OC)cc(C(=O)N2CCN(Cc3cccc(F)c3)CC2)c1 -25.6%
COc1ccc(F)c(-c2nc(CN3CCC(c4ccccc4)CC3)c(C)o2)c1 -28.7%

Activity change, active:
O=C(c1ccncc1)N1CCN(C2CCC(c3ccccc3)CC2)CC1 (centres undefined) -31.7%
COc1ccc(NC(=O)N(C)C[C@@H]2Oc3cc(Br)ccc3S(=O)(=O)N([C@H](C)CO)C[C@H]2C)cc1 -35.2%
CCc1nc2ccccc2c(=O)n1NC(=O)c1c(O)c2ccccc2n(CC)c1=O -39.7%
CC(C[N+](C)(C)C)OC(=O)C1(c2ccccc2)CCCC1 (centres undefined) -30.5%
CN(C)S(=O)(=O)c1cccc(-n2sc3ccccc3c2=O)c1 -42.9%
CC(C(=O)NCCS(=O)(=O)c1ccc(Br)cc1)S(=O)(=O)c1ccc(Cl)cc1 (centres undefined) -34.7%
Fc1ccc(N2CCN(Cc3ccccn3)CC2)cc1 -30.6%
O=C(Nc1ccc(F)c(Cl)c1)Nc1nnc([C@H]2C[C@H](O)[C@@H](CO)O2)s1 -48%
O=C(O)c1csc(-n2nc(-c3ccccc3)cc2C(F)(F)F)n1 -87.4%
CCN=C(N/N=C/c1ccc([N+](=O)[O-])cc1)SC -110%
Cc1cccc(OCc2nc(C)c(C(=O)Nc3cc(C)ccc3C)s2)c1 -35.3%
COCCOc1nc2c(c(=O)n(C)c(=O)n2C)n1C(C)c1ccccc1 (centres undefined) -35.6%
CCS(=O)(=O)N1CCC(NC(=O)c2ccccc2C(=O)c2ccc(Cl)cc2)CC1 -31.3%
COc1ccccc1N1CCN(CC(=O)Nc2ccc(CN3CCCCC3)cc2)CC1 -46.1%
CN(c1ccc(F)cc1)S(=O)(=O)c1ccc2[nH]cc(C(=O)O)c(=O)c2c1 -30.1%
CC1(C)CC(N2CCN(Cc3ccccc3)CC2)=CC(=[N+]2CCCCC2)C1 -43.1%
Brc1cccc[n+]1CCCCCC[n+]1ccccc1Br -59.9%

Reference: PubChem BioAssay AID1347041 (National Center for Advancing Translational Sciences (NCATS), 2019)
